Our source for the binding values is article PMC10405735.

Sequences of proteins named here, by UniProt entry; tags and fusion partners are left off. A change or cut given only in a name is not applied to a line headed by its entry. Residues count along the entry.
UniProt O15218: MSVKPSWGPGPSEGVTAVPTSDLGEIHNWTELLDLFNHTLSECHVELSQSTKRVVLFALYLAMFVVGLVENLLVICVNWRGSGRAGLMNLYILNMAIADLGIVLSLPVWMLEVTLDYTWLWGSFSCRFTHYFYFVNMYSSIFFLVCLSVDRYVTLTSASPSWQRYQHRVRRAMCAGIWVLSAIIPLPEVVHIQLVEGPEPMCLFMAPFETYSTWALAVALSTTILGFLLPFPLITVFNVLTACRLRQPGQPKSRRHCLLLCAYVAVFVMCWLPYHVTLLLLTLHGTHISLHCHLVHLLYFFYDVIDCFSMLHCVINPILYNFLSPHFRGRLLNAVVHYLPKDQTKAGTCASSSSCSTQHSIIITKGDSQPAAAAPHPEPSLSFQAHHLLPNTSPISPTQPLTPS
UniProt P25106: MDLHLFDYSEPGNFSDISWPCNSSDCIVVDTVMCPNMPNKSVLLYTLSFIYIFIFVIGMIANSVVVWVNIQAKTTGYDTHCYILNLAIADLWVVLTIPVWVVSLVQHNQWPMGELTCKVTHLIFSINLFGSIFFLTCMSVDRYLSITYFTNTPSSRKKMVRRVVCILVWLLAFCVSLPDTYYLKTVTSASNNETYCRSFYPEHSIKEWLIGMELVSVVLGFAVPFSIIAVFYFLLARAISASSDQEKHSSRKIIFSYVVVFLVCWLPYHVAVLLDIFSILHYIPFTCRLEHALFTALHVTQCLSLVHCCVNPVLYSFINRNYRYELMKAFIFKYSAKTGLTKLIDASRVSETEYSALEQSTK
UniProt Q9JIL2, residues 17-130: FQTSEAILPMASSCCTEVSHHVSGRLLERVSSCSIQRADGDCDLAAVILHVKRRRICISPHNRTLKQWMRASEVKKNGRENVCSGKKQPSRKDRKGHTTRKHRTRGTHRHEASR

In assay [1] the target is hGPR182 T2A GFP in HEK293 cells (human) (UniProt O15218). Briefly: uptake of fluorescent chemokine by confocal microscopy; HEK293 cells expressing mGPR182 or hGPR182 (T2A GFP) incubated with 100-200 nM fluorescent chemokine at 37°C, fixed and imaged (3D reconstruction), or imaged live; only the binder purified.
Assay [2] addresses human GPR182 (hGPR182), expressed from hGPR182 T2A GFP in 300.19 pre-B cells (human) (UniProt O15218). The assay can be described thus: flow cytometry on cells; uptake: 300.19 pre-B cells stably expressing the receptor (T2A GFP), together with parental cells, incubated with 20, 100 or 200 nM fluorescently labelled chemokine at 37°C for 45 min; MFI of parental cells subtracted; only the binder purified. On the technique in general: A flow cytometer gives signals particle by particle.

In assay [3] the target is hACKR3 (T2A GFP) in 300.19 pre-B cells (human) (UniProt P25106). Described as above.
Assay [4] addresses T1, ACKR2 (T2A GFP) in 300.19 pre-B cells (UniProt O00590).
T1 sequence: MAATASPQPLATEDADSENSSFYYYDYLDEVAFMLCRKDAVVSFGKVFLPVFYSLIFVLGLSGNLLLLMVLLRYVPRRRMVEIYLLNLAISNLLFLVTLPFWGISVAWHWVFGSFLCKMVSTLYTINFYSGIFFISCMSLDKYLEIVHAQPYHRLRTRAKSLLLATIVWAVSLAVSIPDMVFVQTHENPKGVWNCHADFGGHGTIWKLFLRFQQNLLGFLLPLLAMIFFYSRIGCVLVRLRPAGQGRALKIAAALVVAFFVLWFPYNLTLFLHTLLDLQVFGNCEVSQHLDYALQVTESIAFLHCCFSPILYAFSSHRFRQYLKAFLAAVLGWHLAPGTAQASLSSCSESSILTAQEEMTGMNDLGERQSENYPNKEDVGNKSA
The description is as above.

The target of assay [5] is T2, hACKR4 (T2A GFP) in 300.19 pre-B cells (human) (UniProt Q9NPB9).
T2 sequence: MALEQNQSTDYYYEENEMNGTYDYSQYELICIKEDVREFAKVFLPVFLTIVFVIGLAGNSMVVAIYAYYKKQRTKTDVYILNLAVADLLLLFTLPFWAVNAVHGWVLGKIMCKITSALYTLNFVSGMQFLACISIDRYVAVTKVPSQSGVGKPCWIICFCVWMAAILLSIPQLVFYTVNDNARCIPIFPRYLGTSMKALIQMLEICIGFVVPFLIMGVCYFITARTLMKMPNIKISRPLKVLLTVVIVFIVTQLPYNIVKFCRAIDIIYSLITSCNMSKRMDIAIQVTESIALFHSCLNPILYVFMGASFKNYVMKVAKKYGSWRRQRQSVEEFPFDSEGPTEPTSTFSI
Described as above.

In assay [6] the target is T3, murine GPR182 (mGPR182), expressed from mGPR182 T2A GFP in 300.19 pre-B cells (mouse) (UniProt P43142).
T3 sequence: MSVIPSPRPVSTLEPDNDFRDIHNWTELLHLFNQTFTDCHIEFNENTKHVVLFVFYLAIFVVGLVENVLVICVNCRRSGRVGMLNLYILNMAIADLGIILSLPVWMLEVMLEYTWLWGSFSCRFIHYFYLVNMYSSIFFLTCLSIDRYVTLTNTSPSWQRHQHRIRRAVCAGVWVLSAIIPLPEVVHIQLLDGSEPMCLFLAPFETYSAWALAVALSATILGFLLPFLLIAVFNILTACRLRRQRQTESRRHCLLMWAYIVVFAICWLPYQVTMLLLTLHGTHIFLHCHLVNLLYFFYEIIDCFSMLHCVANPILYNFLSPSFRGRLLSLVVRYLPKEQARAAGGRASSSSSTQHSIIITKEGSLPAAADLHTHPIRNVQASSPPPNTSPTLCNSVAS
Described as above.

Assay [7] addresses T4, ACKR1 (T2A GFP) in 300.19 pre-B cells (UniProt Q16570).
T4 sequence: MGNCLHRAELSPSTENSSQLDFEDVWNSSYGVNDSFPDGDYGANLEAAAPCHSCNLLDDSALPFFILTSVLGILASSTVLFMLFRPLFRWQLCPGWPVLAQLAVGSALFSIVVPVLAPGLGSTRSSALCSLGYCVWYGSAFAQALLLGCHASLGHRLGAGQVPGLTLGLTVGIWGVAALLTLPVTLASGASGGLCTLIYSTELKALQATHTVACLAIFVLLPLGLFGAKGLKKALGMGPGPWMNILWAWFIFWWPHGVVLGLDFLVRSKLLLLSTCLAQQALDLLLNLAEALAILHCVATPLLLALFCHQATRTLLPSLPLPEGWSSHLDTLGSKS
The description is as above.

For assay [8], the target named is human GPR182 (hGPR182), expressed from hGPR182 T2A GFP in 300.19 pre-B cells (human) (UniProt O15218). The assay can be described thus: flow cytometry on cells; competition scavenging at 37°C: 300.19 cells expressing mGPR182 or hGPR182 with 3 nM fluorescent chemokine and increasing concentrations of its unlabeled counterpart, 45 min; only the binder purified.
The target in assay [9] is T3, murine GPR182 (mGPR182), expressed from mGPR182 T2A GFP in 300.19 pre-B cells (mouse). Described as above.

No constants are given. Whether binding was seen depends on the method and setting. Some results given as binding are weak or reduced against the parent protein; the word gives no strength. For part of these data: Tags and fused reporters may be left off the sequences shown.

In the case of “mCCL28, fluorescently labelled (from UniProt Q9JIL2 17-130) (ligand)”, the binding result is reported as “binds” in assay [1]; “binds” in [2]; “no binding (tested: 100 nM)” in [3]; “no binding (tested: 100 nM)” in assay [4]; “no binding (tested: 100 nM)” in assay [5]; “binds” in assay [6]. The binding entry in assay [7] is “no binding (tested: 100 nM)”; in assay [8], “binds”; in assay [9], “binds”.
